Over roughly 110,000 compounds, “z-score” has its median near -0.1; the highest 2% begin near 2. The list shows a part of the results. Calls of active or inactive are those of the source.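 The calls were made as follows: active = z-score in the third read window above 3 or below -3; inactive = the rest.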
molecular target: Metabotropic glutamate receptor 8 (Rattus norvegicus) (UniProt P70579); test: mGluR8 Gi/Go-coupled signaling modulation – cell-based, rat, thallium flux, HTS, primary screen (AID 488969); conditions: HEK293 rat mGluR8, GIRK (G protein-gated inwardly rectifying potassium channel) thallium flux, FluoZin2; at 10 µM; stronger effect = higher value; submaximal glutamate (EC20) added with thallium
Sequence of UniProt P70579 (P70579 whole entry, looked up): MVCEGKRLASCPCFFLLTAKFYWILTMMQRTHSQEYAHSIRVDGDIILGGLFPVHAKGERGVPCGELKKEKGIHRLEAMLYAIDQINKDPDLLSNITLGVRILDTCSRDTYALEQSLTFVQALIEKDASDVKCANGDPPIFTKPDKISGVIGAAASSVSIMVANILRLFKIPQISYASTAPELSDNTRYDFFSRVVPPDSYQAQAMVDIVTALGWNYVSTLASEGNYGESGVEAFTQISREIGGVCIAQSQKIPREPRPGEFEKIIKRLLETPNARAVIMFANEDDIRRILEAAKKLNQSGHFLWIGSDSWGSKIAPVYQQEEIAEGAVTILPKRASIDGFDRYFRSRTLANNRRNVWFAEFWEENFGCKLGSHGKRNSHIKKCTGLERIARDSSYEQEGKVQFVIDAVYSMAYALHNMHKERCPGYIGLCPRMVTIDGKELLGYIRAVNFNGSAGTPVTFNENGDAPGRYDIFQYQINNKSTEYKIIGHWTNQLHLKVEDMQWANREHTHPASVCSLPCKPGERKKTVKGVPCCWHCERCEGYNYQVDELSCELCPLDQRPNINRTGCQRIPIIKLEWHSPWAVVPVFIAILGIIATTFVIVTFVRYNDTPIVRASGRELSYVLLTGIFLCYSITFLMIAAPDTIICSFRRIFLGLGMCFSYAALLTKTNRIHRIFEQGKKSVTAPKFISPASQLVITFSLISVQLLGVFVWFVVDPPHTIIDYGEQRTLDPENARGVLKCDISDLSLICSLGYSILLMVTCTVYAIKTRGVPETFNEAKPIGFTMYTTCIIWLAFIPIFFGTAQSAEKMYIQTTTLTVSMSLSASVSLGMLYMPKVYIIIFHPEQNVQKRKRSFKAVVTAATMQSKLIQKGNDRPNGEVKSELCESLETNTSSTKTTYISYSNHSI

Row | SMILES | z-score
1 | Cc1ccc2c(c1)C(CCN)C(=O)N2Cc1ccccc1 (stereo not given) | 0.672
2 | CCN(CC)S(=O)(=O)c1ccc(N2CCN(S(=O)(=O)c3ccccc3C#N)CC2)nc1 | -0.0272
3 | COc1cccc(C2CN(c3ccc(F)cc3F)N=C2c2cccs2)c1OC (stereo not given) | 0.19
4 | Cc1cc2nnc(SCC(=O)NCc3cccs3)n2c2ccccc12 | -0.24
5 | O=C(O)Cc1ccc(C(=O)c2ccc(F)cc2)s1 | 0.186
6 | Cc1cccc(NC(=S)NNC(=O)c2csc(C(C)C)c2)c1 | active: 8.28
7 | c1ccc(CSc2nnc(-c3ccco3)n2Cc2ccccc2)cc1 | -0.196
8 | Cc1ccc(S(=O)(=O)NCC(=O)OCc2csc(-c3ccccc3)n2)cc1 | -0.808
9 | Cn1c(=O)c2c(nc(CN3CCN(c4ccc(F)cc4)CC3)n2Cc2ccccc2F)n(C)c1=O | -0.53
10 | Cc1nn(C)c(C)c1NC(=O)c1ccc(S(=O)(=O)N(C)C)cc1 | -0.138
11 | CCOc1ccc(-n2c(SCc3nc(-c4cccs4)no3)nnc2-c2ccncc2)cc1 | active: 7.31
12 | CC1(C)CC(=O)C2=C(C1)Oc1ncn(CCO)c(=N)c1C2c1ccccc1 (stereo not given) | 0.471
13 | CC(C)N=C1SCC(C)(/C=N/O)S1 (stereo not given) | -0.0171
14 | CCCn1c2c(c(O)c(C(=O)NCc3ccccc3)c1=O)CCCC2 | -0.309
15 | COc1ccc(NC(=O)c2cccc(N3C(=O)NC4CC3(C)Oc3ccccc34)c2)cc1 (stereo not given) | -0.362
16 | CCOc1ccc(/C=N/n2c(SC)nnc2-c2ccccc2)cc1OCC | -1.29
17 | O=C(CN1CCCC1)Nc1c2c(nc3ccccc13)N(Cc1ccccc1)CC2 | 1.74
18 | CCOc1ccc(CC(C(N)=O)C(N)=O)cc1CN(C)C | -0.46
19 | COc1ccc(Br)cc1C(=O)Nc1ccc(O)cc1 | -0.6
20 | Cc1cc2sc(C(=O)O)c(C)c2s1 | -0.0814
21 | O=C1CCCN1c1ccc(S(=O)(=O)NCCc2ccc(Cl)cc2)cc1 | 0.203
22 | COc1cccc(S(=O)(=O)Nc2ccc(C(=O)NCc3ccco3)cc2)c1 | -0.154

Row | SMILES | z-score
23 | COc1cccc(NC(C(=O)Nc2cccc(C(C)=O)c2)c2ccccc2)c1 (stereo not given) | -0.279
24 | CCOC(=O)C1C(=O)CC(=O)CC1CC(C)SCC (stereo not given) | 0.308
25 | CCOc1ccc(-c2nnc3ccc(SCC(=O)Nc4nc5ccccc5s4)nn23)cc1 | -0.542
26 | COc1cccc(-n2c(SCC(=O)Nc3sc4c(c3C(N)=O)CCC4)nc3ccccc3c2=O)c1 | -0.122
27 | Cn1ccnc1SCc1ccc([N+](=O)[O-])cc1 | -0.0706
28 | Cc1ccc(S(=O)(=O)NC2(C(F)(F)F)C(=O)Nc3c2c(=O)n(C)c(=O)n3C)cc1 (stereo not given) | -0.423
29 | CCOC(=O)Cc1csc(NC(=O)c2cc(OC)cc(OC)c2)n1 | -0.412
30 | CCCCn1c(NCCO)nc2ccccc21 | -0.267
31 | CC1=CN2C(=N)/C(=C/c3ccc(C)o3)C(=O)N=C2S1 | 1.02
32 | COc1ccccc1-c1nnc(N(C)C(=O)C2CCCO2)s1 (stereo not given) | -0.00582
33 | O=C(CNC(=O)c1ccccc1)OC(C(=O)c1ccccc1)c1ccccc1 (stereo not given) | -0.485
34 | Cc1ccc(-c2nc(N)sc2CC(=O)OCC(=O)N2C(C)CCCC2C)cc1 (stereo not given) | 0.0105
35 | c1ccc2c(c1)nc1n2CN(Cc2ccc3c(c2)OCO3)CN1 | -0.0714
36 | CCOc1ccc(NC(=O)CSc2nc3cccnc3n2CC)cc1 | -0.19
37 | CC(C)n1c(O)c(N=Nc2ccccn2)c2ccccc21 | 2.21
38 | O=C(CSc1nc(-c2ccccc2)cc(C(F)(F)F)n1)c1cccc([N+](=O)[O-])c1 | 0.00947
39 | COC(=O)c1ccccc1C(=O)N1CCOCCN(C(=O)c2ccccc2C(=O)OC)CCOCC1 | -0.145
40 | CCOC(=O)C(C#N)C(c1cccnc1)c1c(C)[nH][nH]c1=O (stereo not given) | -0.424
41 | COc1cccc(Nc2c(F)c(OC)c(F)c(F)c2C(=O)O)c1 | 1.1
42 | Cc1nc2cc(C(=O)NCc3ccc4c(c3)OCO4)ccc2n1-c1ccc(Br)cc1 | -0.51
43 | Cc1cccc(C(=O)NNC(=O)c2ccc(Cl)cc2)c1O | 0.483
44 | CCCn1nnc(NC(=O)c2ccccc2Cl)n1 | 0.118

Row | SMILES | z-score
45 | Cc1ccc(C)c(NC(=S)NCCN2CCOCC2)c1 | -0.307
46 | Clc1cccc(CSc2nc3ccncc3[nH]2)c1 | active: 9.69
47 | Cc1[nH]n(-c2ccc([N+](=O)[O-])cc2)c(=O)c1C=NCCN1CCN(C(=O)c2ccccc2)CC1 | -0.194
48 | Cc1ccccc1SCc1noc(C(=O)NCC2CCCO2)c1C(=O)O (stereo not given) | -0.235
49 | CC(C)NCC(O)COc1ccc2c(c1)CCC2 (stereo not given) | 0.104
50 | CCn1c(N2CCC(Cc3ccccc3)CC2)nc2c1c(=O)[nH]c(=O)n2C | -0.83
51 | Cc1cc(C)n(-c2ccc(C(=O)Nc3nnc(C)s3)cc2)n1 | 0.034
52 | COCCCNC(=O)/C=C/c1c(Cl)cccc1Cl | -0.66
53 | O=C(CNc1c(Br)cc(Br)cc1Br)NN=C1CCCCC1 | 0.011
54 | O=C(Cn1cc(C(=O)c2ccco2)c2ccccc21)NCc1ccco1 | -1.4
55 | COc1ccc(C)cc1N(C(=O)COc1cccc(F)c1)c1nc2ccccc2s1 | 0.179
56 | CCOc1cc(C(=O)N/N=C(\C)Cc2ccc(OC)cc2)cc(OCC)c1OCC | -0.269
57 | O=C(CSc1nnc2sc3ccccc3n12)N1CCN(c2ccccc2)CC1 | 0.426
58 | Cc1ccc(S(=O)(=O)N2CCN(c3c([N+](=O)[O-])cc(C(F)(F)F)cc3[N+](=O)[O-])CC2)cc1 | 0.0211
59 | Cn1c(C(C(=O)NCC2CCCO2)N(C(=O)Cn2nnc3ccccc32)C2CCCCC2)nc2ccccc21 (stereo not given) | -0.0111
60 | CCCn1ncc(OC)c(Cl)c1=O | -0.121
61 | COC(=O)c1cc(Br)c(=O)n(CCc2ccc(O)cc2)c1 | -0.0309
62 | Cc1cc(C)c(NC(=O)c2ccc(CN3CCc4ccccc4C3)cc2)c(C)c1 | -0.111
63 | CC1(C)Cc2c(c(N3CCOCC3)nc3snc(Br)c23)CO1 | -0.637
64 | CCOc1cc(-c2noc(N)c2C(=O)OC)cc(OCC)c1OCC | -0.338
65 | O=C(COc1ccccc1)Nc1ccc(CSc2ccccc2)cc1 | -0.138
66 | O=C(CN1C(=O)c2ccccc2C1=O)Nc1sc2c(c1C(=O)NCC1CCCO1)CCC2 (stereo not given) | active: 4.33

Row | SMILES | z-score
67 | Cc1nn(Cc2ccccc2Cl)c(C)c1NC(=O)CSc1n[nH]c(C)c1[N+](=O)[O-] | -0.179
68 | CCOC(=O)Cc1nnc(Nc2cccc(O)c2)c2ccccc12 | -0.674
69 | Cc1cc([N+](=O)[O-])cc2c1NCC1CC=CC21 (stereo not given) | -1.92
70 | c1ccc(-c2cc(-c3nc(-c4ccccn4)no3)c3ccccc3n2)cc1 | 0.0959
71 | O=P1(c2ccccc2)C=Cn2c1cc1c2CCCC1 (stereo not given) | 0.549
72 | Fc1ccc(NC(=S)N2CCCc3ccccc32)cc1 | -0.143
73 | O=C(CNC(=O)c1ccccc1)N/N=C/c1cc(Br)ccc1O | -0.0334
74 | CCOc1ccc(Cc2nc(N)nc(N)n2)cc1 | 0.513
75 | COCCNc1oc(-c2ccc(C)cc2)nc1C#N | -0.528
76 | CC1(C)CC(=O)c2cc(C(=O)N3CCCCC3)c(=O)n(-c3ccc(Cl)cc3)c2C1 | 0.117
77 | CCn1ncc(C2=NOC(C(=O)NCc3ccc(OC)cc3)C2)c1C (stereo not given) | 0.792
78 | CCOC(=O)c1c(/N=C/c2cc(C)ccc2O)sc2c1CCC2 | -0.0611
79 | CCOC(=O)C1CCCN(C(=O)c2cc(-c3ccc(C)cc3)on2)C1 (stereo not given) | -0.235
80 | CC(NS(=O)(=O)c1ccccc1)C(N)=O (stereo not given) | -0.0342
81 | CCOc1ccccc1NC(=O)N1C2CCCC1CC(NC(=O)C1CC1)C2 (stereo not given) | -0.0112
82 | CC(C)C(c1nnnn1Cc1ccco1)N1CCN(c2cccc(Cl)c2)CC1 (stereo not given) | -1.14
83 | CC(=O)N1CCN(C(=O)Cn2c(=O)oc3ccccc32)CC1 | -0.443
84 | CCN1CCN(C(=S)Nc2ccccc2Cl)CC1 | -0.199
85 | CCCn1c(SCC(=O)N2CCc3ccccc3C2)nc2c1c(=O)n(C)c(=O)n2C | 0.622
86 | O=C1CC(C(=O)Nc2ccccc2)N=C(N2CCOCC2)N1 (stereo not given) | -0.126
87 | Cc1cc(NC(=O)CCc2ccccc2)c([N+](=O)[O-])cc1C | 1.8
88 | COc1ccccc1C1(O)CC2CCC(C1)N2S(=O)(=O)c1ccc(C(C)=O)cc1 (stereo not given) | 0.222

Row | SMILES | z-score
89 | CC(=O)Nc1ccc(S(=O)(=O)N2CCN(C34CC5CC(CC(C5)C3)C4)CC2)cc1 | 0.892
90 | CC1CN(Cc2cc(=O)n3ccsc3n2)CC(C)O1 (stereo not given) | 0.53
91 | O=C(CSc1nnc(Cc2ccccc2)n1Cc1ccccc1)NCc1ccco1 | -0.453
92 | CS(=O)(=O)N1CCN(c2ccccc2NC(=O)CSc2ccc(Cl)cc2)CC1 | -0.277
93 | Cc1ccc(-c2cc(C(=O)O)c3sc(N4CCCCC4)nc3n2)cc1 | -0.203
94 | CC1=C(C#N)C(NC(=O)C2CC2)(C(F)(F)F)C(=O)N1 (stereo not given) | -0.127
95 | CC12CCC(=O)N1c1c(sc3nc(N4CCOCC4)c4c(c13)CCCC4)C(=O)N2 (stereo not given) | -1.63
96 | O=[N+]([O-])c1ccc(NC(=S)NCCc2ccc(F)cc2)cc1 | 1.65
97 | COc1cccc(N(C(=O)C2COc3ccccc3O2)C(C(=O)NC2CCCCC2)c2ccc(O)cc2)c1 (stereo not given) | -0.109
98 | O=C(CN(c1ccccc1F)S(=O)(=O)c1ccccc1)NC1CCCCCC1 | -0.205
99 | CCCCOc1ccc(/C=N/NC(=S)Nc2cccc(C)c2C)cc1 | 0.714
100 | COc1cc(C(=O)NCc2nnc(SCC(=O)Nc3nc4ccc(C)cc4s3)o2)cc(OC)c1OC | -0.24
101 | O=C(c1ccccc1)c1ccc(OCCCCN2CCCCC2)cc1 | -0.455
102 | O=C(Cc1ccccc1)Nc1ccc(C(=O)O)cc1 | -0.0673
103 | CC(=O)N1N=C(c2cccc(Cl)c2)OC1c1cccc([N+](=O)[O-])c1 (stereo not given) | -0.567
104 | CC1(c2ccccc2)NC(=O)N(CC(=O)NC(=O)NCc2ccco2)C1=O (stereo not given) | -0.363
105 | CN(C)c1nc(-c2ccccc2)cc(C(F)(F)F)c1C#N | -0.292
106 | Clc1ccc(N2CCN(c3cnc4ccccc4n3)CC2)cc1 | -0.483
107 | Cc1cc(NS(=O)(=O)c2ccc(NC(=S)NC(=O)c3ccc(F)cc3)cc2)no1 | -0.0103
108 | CC1(C)CC(O)CC(C)(C)N1CC(O)COCCOc1ccc(Br)cc1 (stereo not given) | -0.471
109 | Cc1ccc(NC(=O)c2ccnc(C(C)(C)C)c2)cc1 | -2.95
110 | O=C(NNc1nc(-c2ccccc2)cs1)c1ccccc1 | -1.53
